Assay results: the BET-seq Pho4 binding data (Le et al. 2018)
The other results are listed elsewhere or left out. Values were computed here from the reads of four pooled replicates and scatter widely.

Target: T1, Pho4 (S. cerevisiae) (UniProt P07270)
T1 sequence: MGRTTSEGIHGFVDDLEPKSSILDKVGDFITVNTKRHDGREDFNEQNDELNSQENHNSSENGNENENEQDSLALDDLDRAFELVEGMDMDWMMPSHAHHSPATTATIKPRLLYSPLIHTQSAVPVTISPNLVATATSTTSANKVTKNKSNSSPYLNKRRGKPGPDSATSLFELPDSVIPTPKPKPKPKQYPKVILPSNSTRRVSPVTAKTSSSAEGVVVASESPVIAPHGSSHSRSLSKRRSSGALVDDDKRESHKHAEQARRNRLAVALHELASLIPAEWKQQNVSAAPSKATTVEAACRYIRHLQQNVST
Assay: relative binding free energy (BET-seq); higher = weaker binding
Conditions: reference: library average

Relative binding free energy, -0.07 kcal/mol:
ATGTGCACGTGTTGCT
AGGTGCACGTGATATA
GTGAGCACGTGTGTGT
TGGGACACGTGGTAGC

Relative binding free energy, -0.28 kcal/mol:
AAGGGCACGTGGGCAA

Relative binding free energy, 0.27 kcal/mol:
AGGTTCACGTGGTGGT
AGTTTCACGTGTATAA
TGTATCACGTGATATG

Relative binding free energy, -0.2 kcal/mol:
GTCGGCACGTGGGTAA
GCGAGCACGTGGGGCG

Relative binding free energy, -0.14 kcal/mol:
GAGCGCACGTGGAGTG
TAAGGCACGTGTTTGC
TGCCGCACGTGGTTGG

Relative binding free energy, 0.08 kcal/mol:
CTGGTCACGTGTCAGG
AATTTCACGTGCTGTT
CTATTCACGTGCGGGG
TTGGTCACGTGCTAGT
GGCGACACGTGTTGAG

Relative binding free energy, -0.15 kcal/mol:
AGGCGCACGTGCGGTA
AGTCGCACGTGTTTTG
GAGGGCACGTGGACAG
GTGAGCACGTGTATGC

Relative binding free energy, 0.37 kcal/mol:
ATTCTCACGTGCAGGG
AGGTTCACGTGTGGAA
GGTGTCACGTGAGTTA
ATTATCACGTGAATAA

Relative binding free energy, 0.2 kcal/mol:
GCTGGCACGTGAGGTG
ACTTACACGTGAGTGG
GGGCACACGTGGAAGT

Relative binding free energy, 0.05 kcal/mol:
GGAGGCACGTGAAGCG
GGGTGCACGTGTGTCT
AAGAGCACGTGTTGAA
TCTGGCACGTGTGGCG
GGGATCACGTGTAGTT
TTCTACACGTGTTTGG

Relative binding free energy, 0.06 kcal/mol:
TCGGTCACGTGCTAGT
ATTATCACGTGCGAGT
ATCGTCACGTGTTTGG
CGTGACACGTGATTGT
ATGAACACGTGGTTAT
GTTTACACGTGTGTTC

Relative binding free energy, 0.15 kcal/mol:
ATATTCACGTGGTCGG
AATTTCACGTGGTGTC
GTGAGCACGTGAAGGG
TGTTACACGTGTGCTG

Relative binding free energy, 0.1 kcal/mol:
CGTATCACGTGGGTCG
TGGAGCACGTGTTAAG
ATATGCACGTGATGGT
TGTTCCACGTGATAGG
GCTGTCACGTGGGAGA
TTCGGCACGTGAGGCG

Relative binding free energy, 0.12 kcal/mol:
TGGGACACGTGATGAA
CATGTCACGTGTATAG
TAATACACGTGATTTT
GATGTCACGTGTTGTC

Relative binding free energy, -0.03 kcal/mol:
TTGTACACGTGCAGGG
CGTGTCACGTGGTTTA
CTTGTCACGTGGTTGG
TTATCCACGTGGTTTA
TTAAACACGTGTTCGG

Relative binding free energy, -0.24 kcal/mol:
TGAGGCACGTGGGCGG
TGTACCACGTGCGTGG

Relative binding free energy, -0.01 kcal/mol:
CGGTGCACGTGCTGGG
TACGTCACGTGGGAGT
CTCGGCACGTGATTGT
TCGAACACGTGTGGGG
GGTTGCACGTGGTGAC

Relative binding free energy, -0.09 kcal/mol:
CCGGTCACGTGGGGGG
AGGCACACGTGGGGTA

Relative binding free energy, 0.52 kcal/mol:
GTTATCACGTGATGTC

Relative binding free energy, -0.21 kcal/mol:
GGAGGCACGTGTTCAG
TGATGCACGTGGGTGC
CAGCGCACGTGGGGGC
AAAGGCACGTGGGAAG

Relative binding free energy, 0.14 kcal/mol:
GTATGCACGTGTACGA
AGGCGCACGTGAGTGT
TTGTACACGTGTACAT
GTCGTCACGTGGGGAT

Relative binding free energy, 0.07 kcal/mol:
GCACGCACGTGTTGGG
GTAATCACGTGTTTGA
TAGTACACGTGTTAGG

Relative binding free energy, 0.02 kcal/mol:
TTTGCCACGTGTTGGG
ATCAGCACGTGTGTTA
GGATCCACGTGGCGTG

Relative binding free energy, -0.22 kcal/mol:
AGCTCCACGTGGGTGG
TTTACCACGTGGGGTA

Relative binding free energy, -0.05 kcal/mol:
TACTGCACGTGGTGTG
GTGGGCACGTGTCAAG
TGAGCCACGTGTGAGG

Relative binding free energy, 0.34 kcal/mol:
GCGGTCACGTGATCGG
TTGTTCACGTGTTCAG

Relative binding free energy, -0.02 kcal/mol:
ATTTGCACGTGCGTAA
GGGAGCACGTGTGGTC
AGCGGCACGTGTGGGA
TTAGGCACGTGATCTT
GCCGTCACGTGGGTTG

Relative binding free energy, 0.31 kcal/mol:
GGGATCACGTGAAGCG
GTGCTCACGTGAGGGA
TATCTCACGTGTGTCG
AGACTCACGTGTGGGG

Relative binding free energy, 0.29 kcal/mol:
AGTATCACGTGATAAG
TATGTCACGTGAGTCA

Relative binding free energy, -0.25 kcal/mol:
TACGTCACGTGGGTTA

Relative binding free energy, 0.01 kcal/mol:
TTTGACACGTGTTAGA
AAGAGCACGTGGACGT
TCAGTCACGTGGGATT
TTGCACACGTGTTCGG
GGTACCACGTGGGTTT
GAGGTCACGTGGCGCG
GAGGCCACGTGTGTGA
GGGTACACGTGGTAAT
GGGAACACGTGCTGGA
TTAATCACGTGGTGAT
TAAGGCACGTGAGCGT

Relative binding free energy, -0.23 kcal/mol:
TATAACACGTGGGAGG

Relative binding free energy, 0.22 kcal/mol:
GTGTACACGTGAACTG
GGTACCACGTGAAGGG
GGGATCACGTGGCGGT
CGGGTCACGTGATTGT
GGTTACACGTGTTTTA

Relative binding free energy, 0.39 kcal/mol:
GAGTTCACGTGATTTA
GTTTTCACGTGATACT
GGATTCACGTGTATGG
ATGTTCACGTGAGTTC

Relative binding free energy, 0 kcal/mol:
TATAGCACGTGTTATG
TTTAACACGTGGGACG
CGTGACACGTGTTATG

Relative binding free energy, 0.35 kcal/mol:
ACTTTCACGTGGTTTT
GATTTCACGTGATTAT

Relative binding free energy, 0.49 kcal/mol:
TTTCTCACGTGAGAAG

Relative binding free energy, -0.29 kcal/mol:
GTACGCACGTGGGGGC

Relative binding free energy, 0.3 kcal/mol:
CAGCACACGTGTGGGG
TACTTCACGTGGCTGG
TCATTCACGTGTAGGC

Relative binding free energy, -0.19 kcal/mol:
CATGGCACGTGGTTTA
GCACGCACGTGGGGTT

Relative binding free energy, 0.18 kcal/mol:
TTGTACACGTGTAAAT
TTTTACACGTGATGAA

Relative binding free energy, 0.11 kcal/mol:
ATGGACACGTGATTGA
AAAAACACGTGGTAGT
ATGCTCACGTGGAGGT
TGATTCACGTGGTGAA
TTGAGCACGTGGAAAT
CAAGACACGTGTGGGG

Relative binding free energy, -0.08 kcal/mol:
TTCGACACGTGGGGTG
GATGGCACGTGGGTAT
TTTGGCACGTGTTCAG

Relative binding free energy, -0.17 kcal/mol:
CTGGACACGTGGGCGT
CTATGCACGTGGTGGT
TTTCGCACGTGGTGCG
CTAGGCACGTGGGCTG
TTTGCCACGTGTTGTG

Relative binding free energy, 0.33 kcal/mol:
TATTTCACGTGAAGCG
ATGTTCACGTGTGATG

Relative binding free energy, -0.12 kcal/mol:
TAATCCACGTGGGGTG

Relative binding free energy, 0.32 kcal/mol:
CGGTTCACGTGGCGTT

Relative binding free energy, 0.28 kcal/mol:
ATTTTCACGTGAAATT
GGATTCACGTGGTAGG
AGTTTCACGTGCTTGC

Relative binding free energy, -0.11 kcal/mol:
GGAGGCACGTGCTGGA
ATGAACACGTGGGGAA
AAGGGCACGTGTTTTC
ATGAGCACGTGGTTGG

Relative binding free energy, 0.25 kcal/mol:
TGCTGCACGTGAGATG
GGATTCACGTGTGCAG
GTTCTCACGTGATATG

Relative binding free energy, 0.13 kcal/mol:
TGGTACACGTGGAGAT
ATGGTCACGTGGAGTG
AATGTCACGTGTTTGT
AGGAACACGTGTGTCT
TCGTTCACGTGGGGGA
GACGTCACGTGGTTAT
GTCGGCACGTGACGGT
TGCTGCACGTGATTTG

Relative binding free energy, 0.09 kcal/mol:
AGTCTCACGTGTGCGG
GCGCTCACGTGGTGTT
ATGGTCACGTGTTTGA

Relative binding free energy, 0.47 kcal/mol:
TTGTTCACGTGATTTC

Relative binding free energy, 0.43 kcal/mol:
ATGTTCACGTGTTGAG

Relative binding free energy, 0.04 kcal/mol:
TAGTGCACGTGGACTT
TTGTGCACGTGATGTA
GGAGACACGTGGTGAA

Relative binding free energy, 0.21 kcal/mol:
TTAGACACGTGACTGG
ATTTCCACGTGTGTAT

Relative binding free energy, 0.17 kcal/mol:
AAGATCACGTGTCGGG
AAGCACACGTGGTTGG
CTGTTCACGTGTTGTC
GCGTACACGTGGTGGC
AGTATCACGTGTAAAG
ATGGTCACGTGTTTAC
TGAGACACGTGATGTG
GTTGACACGTGCAATG

Relative binding free energy, 0.19 kcal/mol:
GGATGCACGTGAGAGA

Relative binding free energy, -0.18 kcal/mol:
GTTAGCACGTGCGGCT
TGTGGCACGTGCGGGC

Relative binding free energy, 0.16 kcal/mol:
TGGTTCACGTGCCGGG
GCCTACACGTGGGGGA
GGCGTCACGTGTAAGT

Relative binding free energy, -0.16 kcal/mol:
TGTCGCACGTGGTATG
GTAGCCACGTGGTAGT
ATTCGCACGTGCTGGG
TCGGGCACGTGGTCGG

Relative binding free energy, 0.26 kcal/mol:
TGTTTCACGTGGGTAA
TGGTCCACGTGAAGGA
TGAGACACGTGATGGC
TTGGTCACGTGCAGTC

Relative binding free energy, 0.23 kcal/mol:
TAATTCACGTGAGCGT
GATTACACGTGTTTCT

Relative binding free energy, -0.06 kcal/mol:
ACATACACGTGTGTGG
AACGGCACGTGGTTGG
ATGGCCACGTGGAGGA
ATAGTCACGTGGTGTA

Relative binding free energy, 0.24 kcal/mol:
ACTGTCACGTGGAGAT
ACTATCACGTGTTTTT
TTGTCCACGTGAGTAG
CGTTTCACGTGAAGAG
AAGTTCACGTGGGAAT

Relative binding free energy, 0.03 kcal/mol:
ATAGGCACGTGCCGGA
AGAGGCACGTGTGGGC
GATGACACGTGGGTGG
TTTGGCACGTGATGTT

Relative binding free energy, -0.36 kcal/mol:
TGACGCACGTGGGTGT

Relative binding free energy, -0.1 kcal/mol:
TGGGACACGTGCGCGT
CTGAGCACGTGGGGAC
TAGAACACGTGGTTTT
TATGGCACGTGGAGGT

Relative binding free energy, -0.04 kcal/mol:
AGAGGCACGTGTCGTT
TGTGGCACGTGTGTCA
GTGGGCACGTGCGGAC
TTGTGCACGTGTCGTG
